Assay results: paper PMC9574860, “Chemical Toolkit for PARK7: Potent, Selective, and High-Throughput” (Journal of Medicinal Chemistry, 2022)
Screen size: about 7,900 compounds; about 400 (5.1%) showed an effect of 50% or more. Some of the results follow.

The compounds below were run against Parkinson's disease protein 7 (PARK7/DJ1) (human, UniProt Q99497) (assay: primary screen, percent inhibition; read as competition with a fluorescent probe by fluorescence polarization; higher = more effect of the substance). Settings: 100 µM.
Summary of the method: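 Fluorescence-polarization probe displacement (JYQ-107, 20 nM final, 2 h) after 2 h preincubation of PARK7 (0.2 μM final) with each fragment at 100 μM final. Read-out ex/em 480/520 nm; remaining activity derived from FP signal loss relative to reference controls.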

Chain of Parkinson's disease protein 7 (PARK7/DJ1) (Q99497 whole entry, looked up, the tested form may be a part): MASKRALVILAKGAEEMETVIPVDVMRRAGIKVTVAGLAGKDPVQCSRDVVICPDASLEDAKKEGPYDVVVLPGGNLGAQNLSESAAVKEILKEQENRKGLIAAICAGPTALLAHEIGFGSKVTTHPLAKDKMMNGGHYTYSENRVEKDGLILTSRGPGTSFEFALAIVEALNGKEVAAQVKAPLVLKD

| Compound | Inhibition % [%] |
| --- | --- |
| N#Cc1ccc(NC(=O)CCCl)cc1 | 9.81 |
| C=CC(=O)N(C)CC1OCCc2sccc21 (centres unmarked) | 5.36 |
| C=CC(=O)N1CCCN(C)c2ccccc21 | 8.44 |
| C=CC(=O)N1CCC2(CCCCC2)C1 | 8.62 |
| CC(C)C1NC(=O)C12CCCCCC2 (centres unmarked) | 9.56 |
| O=C(CCl)N1CCCCCC1 | 14.9 |
| O=C(CCl)Nc1cccc(Cl)c1Cl | 29.1 |
| O=C(CCl)Nc1cc(C(F)(F)F)ccc1N1CCCCC1 | -3.88 |
| CCc1cccnc1C#N | 7.82 |
| C=CC(=O)N1CCC(c2nccs2)CC1 | 2.06 |
| N#Cc1cnc(N)cn1 | 19.9 |
| CC1CCN(CN2C(=O)CC2(C)C)CC1 | 5.57 |
| C=CC(=O)N1CCCCC1CS(C)(=O)=O (centres unmarked) | 5.69 |
| CC1(C)COc2ccc(B3OC(C)(C)C(C)(C)O3)cc21 | 7.43 |
| O=C(CCl)NCC1CCOC1 (centres unmarked) | 8.14 |
| C#Cc1cccc(NC(=O)CCl)c1 | 33.9 |
| CC1CC(N2CC=C(c3ccc(O)cc3)CC2)C(=O)O1 (centres unmarked) | 10.6 |
| C=CC(=O)N1CCN(c2cnn(C)c2)CC1 | 34 |
| Cn1cc(CNc2ccc(C#N)nc2)c(C(F)(F)F)n1 | 7.19 |
| O=C(CCl)N1CCNCC1.O=C(O)C(F)(F)F | 7.16 |
| CC1(C)OB(c2ccc3nonc3c2)OC1(C)C | 1.74 |
| CC1(C)OB(c2ccc(O)cc2)OC1(C)C | 3.03 |
| N#Cc1ncn(CC(=O)NCCc2cccs2)n1 | 3.59 |
| C=CCNC(=O)C(C#N)=Cc1ccc(C)o1 | 6.3 |
| O=C1CCc2cc(OCCCl)ccc2N1 | 6.21 |
| COCc1nc(C#N)c(-c2ccccc2)s1 | 7.01 |

| Compound | Inhibition % [%] |
| --- | --- |
| COCCn1c(S)nc2ccccc2c1=O | 4.25 |
| COCCCOc1ccc(B2OC(C)(C)C(C)(C)O2)cc1 | 4.04 |
| Cc1cccc(B2OC(C)(C)C(C)(C)O2)c1Br | 3.4 |
| Cl.ClCCN1CC2CCC(C1)O2 | 3.05 |
| Cc1cscc1NS(=O)(=O)c1cccc(S(=O)(=O)F)c1 | 98.1 |
| CC(C)CN1CCN(c2oc(C3CC3)nc2C#N)CC1 | 6.47 |
| C=CC(=O)NCc1ccc(-n2cccn2)cc1 | 4.01 |
| O=C(CCCl)Nc1ccccn1 | 8.88 |
| CC1(C)OB(c2ccnc3cc(Cl)ccc23)OC1(C)C | 3.03 |
| CC1(C)OB(c2ccc(C(F)(F)F)c(C#N)c2)OC1(C)C | 4.29 |
| Cc1cccc(N2C(=O)CN=C2S)c1C | 7.8 |
| Cc1ccc(C=C(C#N)C(N)=S)s1 | 12 |
| O=c1c2ccccc2ncn1CCS(=O)(=O)F | 14.1 |
| C=CC(=O)N(Cc1ccccc1)C1C=CS(=O)(=O)C1 (centres unmarked) | 16 |
| N#Cc1ncoc1NCCc1ccccc1 | 6.75 |
| COc1cc2c(B3OC(C)(C)C(C)(C)O3)cn(C)c2cn1 | 6.59 |
| OB(O)c1ccccc1C1CCC1 | 5.99 |
| CCc1nccn1S(=O)(=O)c1ccc(Cl)c(Cl)c1 | 8.82 |
| Cc1occc1Sc1nccnc1C#N | 7.12 |
| COc1ccc(CN(C)C(=O)c2cccnc2S)cc1O | 19.7 |
| CC1(C)OB(c2cccc(CN)c2)OC1(C)C.Cl | 2.79 |
| C=CC(=O)Nc1ccccc1C(=O)OC | 7.6 |
| CCc1nc(C)cn1S(=O)(=O)c1cc(Cl)ccc1OC | 5.69 |
| N#Cc1nc(Cl)ccc1C(F)(F)F | 5.75 |
| COc1ccc2[nH]c(CCCCl)nc2n1.Cl | 23.2 |
| O=C1CN(C(=O)C=Cc2c(Cl)nc3sccn23)CCN1 | 10.3 |

| Compound | Inhibition % [%] |
| --- | --- |
| O=C(CCl)Nc1ccc(N2CCc3ccccc32)cc1 | 6.97 |
| Sc1ccc2ccccc2n1 | 14.2 |
| COC(=O)c1cccc(F)c1B1OC(C)(C)C(C)(C)O1 | 4.22 |
| N#Cc1nc(Cc2ccccc2)oc1N1CCCC1 | 0.891 |
| O=C1SCCN1CC(=O)N1CCCCc2ccccc21 | 4.59 |
| COc1cccc2cc(C=CC(=O)N3CCOCC3)oc12 | 4.01 |
| C=CC(=O)N1CCCC1c1cn(C)nc1C (centres unmarked) | 8.23 |
| C=CC(=O)N1CCC(CC(C)(C)C)C1 (centres unmarked) | 8.14 |
| O=C(CCl)Nc1ccc(SC(F)F)cc1 | 100 |
| C=CC(=O)N(CC1CCCO1)C1CCSC1 (centres unmarked) | 10.6 |
| C=CC(=O)Nc1cnn(Cc2nnc3n2CCCC3)c1 | 14.9 |
| Cc1nn(C)c(C)c1C=C(C#N)c1ccccn1 | 10.7 |
| c1csc(COCC2CO2)c1 (centres unmarked) | 0.211 |
| Cc1cc(NS(=O)(=O)C=Cc2ccccc2)ccn1 | 29.4 |
| OB1OCc2cc(Cl)ccc21 | 5.69 |
| C=CC(=O)Nc1cccc2c1OCO2 | 2.99 |
| Cc1c(CCNC(=O)c2cccnc2S)cnn1C | 6.16 |
| N#Cc1ncccc1F | 6.29 |
| CC(=O)Nc1ccc(NC2SC(=O)NC2=O)cc1 (centres unmarked) | 66.6 |
| CN(C(=O)CCl)c1ccc([N+](=O)[O-])cc1 | 93.5 |
| Cn1cc(C=C(C#N)c2ccccn2)cn1 | 6.78 |
| C=CC(=O)NC(C)c1csc(C2CC2)n1 (centres unmarked) | 7.23 |
| CC(O)(CNc1ccc(C#N)nc1)c1ccccc1Cl (centres unmarked) | 7.88 |
| O=C(Nc1ccc(F)cc1)N1CCCC(C2OCCO2)C1 (centres unmarked) | 9.05 |
| Cc1ccc2nc(S)n(C)c(=O)c2c1 | 3.43 |
| CC1(C)OB(c2cnc3[nH]ccc3c2)OC1(C)C | 7.34 |

| Compound | Inhibition % [%] |
| --- | --- |
| COC(=O)c1ccc(B2OC(C)(C)C(C)(C)O2)o1 | 4.29 |
| CN1CCC(NC(=O)CCl)CC1 | 4.68 |
| Cc1cc(NC2CC(C)OC2=O)nn1C (centres unmarked) | 12.3 |
| O=S(=O)(F)CCn1ncc(Cl)c1C1CC1 | 14.9 |
| CC1Oc2ccccc2N(CCn2ccnc2C#N)C1=O (centres unmarked) | 19.7 |
| C=CC(=O)NC1CCCN(S(C)(=O)=O)C1 (centres unmarked) | 5.94 |
| CN(C(=O)CCl)C1CCCCC1 | 92.5 |
| CSc1nnc(C#N)s1 | 6.56 |
| Cc1cc(C)n(CCCCl)n1 | 5.02 |
| CCC(=O)N1CCCC1C1CCCN1C1CCOC1=O (centres unmarked) | 8.79 |
| O=C(CCCl)NC1CCCCC1 | 3.8 |
| CC(C)(C)OC(=O)N1CCC(B2OC(C)(C)C(C)(C)O2)=CC1=O | 15.2 |
| Cc1cc(S(=O)(=O)n2ccnc2C)ccc1Cl | 2.45 |
| CC(C)n1nccc1NS(=O)(=O)C=Cc1ccccc1 | 11.2 |
| OB(O)c1ccc(C2CC2)cc1F | -1.81 |
| CCn1nccc1B1OC(C)(C)C(C)(C)O1 | 7.49 |
| N#Cc1ccc(N2CCCC(F)C2)cn1 (centres unmarked) | 3.27 |
| C=CC(=O)Nc1nc2cccnc2n1CC | 9.09 |
| CC1(c2ccccc2F)CNC1=O (centres unmarked) | -1.9 |
| CCOc1ccc(Cl)cc1S(=O)(=O)n1cccn1 | -1.82 |
| ClCCc1cscn1 | 5.31 |
| O=C1CC2(CCN(C(=O)OCc3ccccc3)CC2)N1 | 2.87 |
| O=C(CCl)N(Cc1cccs1)C1CC1 | 2.18 |
| OB(O)c1cccc(OCCN2CCCCC2)c1 | 9.09 |
| C=CC(=O)N1CCS(=O)(=O)C(C)C1C (centres unmarked) | 7.37 |
| Sc1nc(NC2CC2)c2ccccc2n1 | 7.62 |

| Compound | Inhibition % [%] |
| --- | --- |
| CC1CCC2(CC1)NC(=O)N(NC(=O)CCl)C2=O (centres unmarked) | 9.61 |
| O=S(=O)(F)c1ccc(S(=O)(=O)Nc2ccncc2)cc1 | 8.89 |
| C=CC(=O)N1CCCC(CC2CCOC2)C1 (centres unmarked) | 7.3 |
| C=CC(=O)N1CCCN(c2nc(CC)ns2)CC1 | 4.09 |
| C=CC(=O)N1CCN(C(=O)C2CCCN2C)CC1 (centres unmarked) | 12.4 |
| COc1ccc(CNc2oc(C)nc2C#N)cc1 | 6.66 |
| CC1(C)OB(c2ccc3c(c2)COCC(=O)N3)OC1(C)C | 2.89 |
| CC(C(=O)O)N1C(=O)CSC1=O (centres unmarked) | 13.7 |
| C=CC(=O)NCc1ccc(-c2csc(C)n2)o1 | 0.857 |
| C=CC(=O)N1CCc2ccc(Cl)cc2C1 | 3.77 |
| CC1(C)OB(c2cnc(N3CCC(O)CC3)nc2)OC1(C)C | 2.94 |
| CCn1cc(C2NC(=O)C23CCOCC3)cn1 (centres unmarked) | 2.01 |
| N#Cc1ccc(N2CCc3sccc3C2)cn1 | 27.1 |
| Cc1cc(C)n(CC(C)Nc2ccc(Cl)c(C#N)n2)n1 (centres unmarked) | 6.01 |
| O=C(CCl)Nc1cc(Cl)ccc1-n1cncn1 | 11 |
| CC1(C)OB(c2ccc(OCCS(C)(=O)=O)cc2)OC1(C)C | -1.19 |
| O=C(CCl)NC1CCC(C(F)(F)F)CC1 (centres unmarked) | 8.89 |
| O=C1CN=C(S)N1C1CCCCCC1 | 5.4 |
| C=CC(=O)NC1CCC(=O)NC1C1CCCO1 (centres unmarked) | 16.5 |
| N#CC(C(=O)NCc1ccccc1)=C1NCCCN1 | 4.85 |
| CN(Cc1nccn1C(F)F)c1cccnc1C#N | 17.4 |
| O=C(CCl)Nc1nc2c(s1)CCCC2 | 22.8 |
| CC(Sc1nccnc1C#N)c1cccs1 (centres unmarked) | 7.28 |
| CC(C)N1CCC(Nc2ccc(C#N)nc2)C1=O (centres unmarked) | 27.9 |
